Numbering of substitutions follows the chain as printed. Names may count otherwise. No constants are given. Whether binding was seen depends on the method and setting. In cells and extracts the contact can be indirect. Some binding calls cover weakened binding; strength is not graded here. For part of these data: Where a sequence is shown, tags or fusion partners need not be part of it. Values belong to the molecule of their own block, whether it stands above or below them.
Assays:
[1] = target: FLAG-tagged human 14-3-3ε (human) (UniProt P62258); assay: co-IP; anti-FLAG beads on lysates of HCC cells stably expressing FLAG-14-3-3ε, untreated or treated with BLM (20 mU/ml 2 h; 150 mU/ml 4 h); endogenous partners detected by immunoblot
[2] = target: FLAG-tagged human 14-3-3ε (human) (UniProt P62258); assay: as above; remark: listed apart in the source
[3] = target: T1, FLAG-tagged human 14-3-3ε (human), P62258; assay: as above; conditions: remark: other sources report otherwise
T1 chain: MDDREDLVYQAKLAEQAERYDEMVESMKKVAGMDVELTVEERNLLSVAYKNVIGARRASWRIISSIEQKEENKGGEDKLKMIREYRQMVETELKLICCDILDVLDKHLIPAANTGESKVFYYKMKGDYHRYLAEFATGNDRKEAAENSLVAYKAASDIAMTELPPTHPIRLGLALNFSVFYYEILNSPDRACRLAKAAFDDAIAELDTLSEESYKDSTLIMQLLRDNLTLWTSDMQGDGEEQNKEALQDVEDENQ

The chains behind the UniProt entries cited, without tags or fusion partners.
UniProt Q13547: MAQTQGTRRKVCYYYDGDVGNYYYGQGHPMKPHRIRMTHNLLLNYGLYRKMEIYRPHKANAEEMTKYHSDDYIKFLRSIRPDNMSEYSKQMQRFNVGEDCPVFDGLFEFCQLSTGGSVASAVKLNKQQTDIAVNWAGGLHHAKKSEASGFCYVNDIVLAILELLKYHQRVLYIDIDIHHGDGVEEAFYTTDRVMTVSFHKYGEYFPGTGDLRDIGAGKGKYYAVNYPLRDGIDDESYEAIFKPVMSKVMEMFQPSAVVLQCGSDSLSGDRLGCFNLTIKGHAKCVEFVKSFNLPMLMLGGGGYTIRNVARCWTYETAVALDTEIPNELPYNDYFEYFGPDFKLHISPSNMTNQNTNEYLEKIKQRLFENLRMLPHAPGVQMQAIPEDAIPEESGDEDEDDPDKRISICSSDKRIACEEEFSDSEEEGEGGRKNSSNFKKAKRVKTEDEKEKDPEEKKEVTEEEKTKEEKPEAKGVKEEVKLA
UniProt Q16531: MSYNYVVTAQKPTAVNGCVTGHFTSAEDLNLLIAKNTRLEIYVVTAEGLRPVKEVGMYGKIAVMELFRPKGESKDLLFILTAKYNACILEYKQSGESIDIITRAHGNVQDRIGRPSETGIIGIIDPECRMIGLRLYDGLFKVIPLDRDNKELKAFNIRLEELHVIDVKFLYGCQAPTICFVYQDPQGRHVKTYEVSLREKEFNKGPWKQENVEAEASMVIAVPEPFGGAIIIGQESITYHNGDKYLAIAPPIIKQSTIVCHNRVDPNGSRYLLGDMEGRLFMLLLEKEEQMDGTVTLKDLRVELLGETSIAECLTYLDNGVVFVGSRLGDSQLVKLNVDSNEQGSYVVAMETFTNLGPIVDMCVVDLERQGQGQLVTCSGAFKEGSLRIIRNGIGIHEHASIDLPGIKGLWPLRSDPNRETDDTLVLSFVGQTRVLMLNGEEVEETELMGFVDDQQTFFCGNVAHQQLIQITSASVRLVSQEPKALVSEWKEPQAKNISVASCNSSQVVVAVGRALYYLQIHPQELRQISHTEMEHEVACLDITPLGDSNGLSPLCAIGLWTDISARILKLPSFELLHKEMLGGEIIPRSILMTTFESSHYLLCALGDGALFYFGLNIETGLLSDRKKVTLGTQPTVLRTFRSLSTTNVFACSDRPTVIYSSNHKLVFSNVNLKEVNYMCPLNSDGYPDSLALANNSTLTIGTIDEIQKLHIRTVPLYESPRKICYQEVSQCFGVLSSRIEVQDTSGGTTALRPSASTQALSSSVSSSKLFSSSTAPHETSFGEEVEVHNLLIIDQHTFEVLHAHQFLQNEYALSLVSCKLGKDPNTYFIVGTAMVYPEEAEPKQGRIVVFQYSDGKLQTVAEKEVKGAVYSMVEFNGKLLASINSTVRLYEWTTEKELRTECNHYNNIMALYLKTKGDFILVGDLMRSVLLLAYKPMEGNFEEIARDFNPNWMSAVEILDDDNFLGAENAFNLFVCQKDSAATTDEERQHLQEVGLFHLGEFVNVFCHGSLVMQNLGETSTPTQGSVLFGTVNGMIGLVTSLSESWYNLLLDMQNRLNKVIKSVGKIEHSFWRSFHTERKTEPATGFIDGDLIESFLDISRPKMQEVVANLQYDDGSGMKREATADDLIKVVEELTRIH
UniProt Q9UBN7: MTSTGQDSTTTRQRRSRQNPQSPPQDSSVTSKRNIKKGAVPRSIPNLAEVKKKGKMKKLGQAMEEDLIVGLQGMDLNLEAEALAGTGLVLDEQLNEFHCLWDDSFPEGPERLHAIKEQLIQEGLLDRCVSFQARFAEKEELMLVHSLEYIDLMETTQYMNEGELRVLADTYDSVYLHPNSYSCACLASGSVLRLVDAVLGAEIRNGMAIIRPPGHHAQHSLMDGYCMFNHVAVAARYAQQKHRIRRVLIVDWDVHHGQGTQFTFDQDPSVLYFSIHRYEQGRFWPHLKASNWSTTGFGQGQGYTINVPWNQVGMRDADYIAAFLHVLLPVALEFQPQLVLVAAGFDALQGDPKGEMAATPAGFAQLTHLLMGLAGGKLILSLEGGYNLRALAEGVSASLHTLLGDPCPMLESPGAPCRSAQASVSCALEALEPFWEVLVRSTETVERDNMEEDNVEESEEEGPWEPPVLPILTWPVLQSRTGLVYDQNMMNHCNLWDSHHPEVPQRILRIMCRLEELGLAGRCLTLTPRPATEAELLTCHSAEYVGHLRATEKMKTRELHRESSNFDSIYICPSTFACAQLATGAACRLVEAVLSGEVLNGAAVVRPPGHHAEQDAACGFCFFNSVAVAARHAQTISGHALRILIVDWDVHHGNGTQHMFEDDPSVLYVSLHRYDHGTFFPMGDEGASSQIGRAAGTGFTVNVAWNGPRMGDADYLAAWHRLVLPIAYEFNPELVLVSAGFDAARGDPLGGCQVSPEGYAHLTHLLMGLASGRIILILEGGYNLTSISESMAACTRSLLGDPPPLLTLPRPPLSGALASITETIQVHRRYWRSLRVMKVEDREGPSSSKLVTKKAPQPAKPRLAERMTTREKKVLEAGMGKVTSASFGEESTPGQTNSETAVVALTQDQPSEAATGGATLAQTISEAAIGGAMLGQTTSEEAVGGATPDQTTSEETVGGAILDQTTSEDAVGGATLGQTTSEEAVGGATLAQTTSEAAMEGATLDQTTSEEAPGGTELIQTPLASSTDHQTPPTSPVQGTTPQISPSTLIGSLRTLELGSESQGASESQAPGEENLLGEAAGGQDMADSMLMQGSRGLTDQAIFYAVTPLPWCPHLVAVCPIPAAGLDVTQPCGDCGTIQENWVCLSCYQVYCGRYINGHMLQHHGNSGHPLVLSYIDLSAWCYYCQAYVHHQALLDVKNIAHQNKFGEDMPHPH

[4] = target: FLAG-tagged human 14-3-3ε (human) (UniProt P62258); assay: co-IP; HA-tagged TAK1 constructs co-transfected with FLAG-tagged 14-3-3ε into QGY-7703 cells, 48 h, with or without BLM; anti-FLAG beads, immunoblot

- binding [4]: binds
B3: HA-tagged full-length TAK1 (protein, UniProt O43318-2 1-579)
chain: MSTASAASSSSSSSAGEMIEAPSQVLNFEEIDYKEIEVEEVVGRGAFGVVCKAKWRAKDVAIKQIESESERKAFIVELRQLSRVNHPNIVKLYGACLNPVCLVMEYAEGGSLYNVLHGAEPLPYYTAAHAMSWCLQCSQGVAYLHSMQPKALIHRDLKPPNLLLVAGGTVLKICDFGTACDIQTHMTNNKGSAAWMAPEVFEGSNYSEKCDVFSWGIILWEVITRRKPFDEIGGPAFRIMWAVHNGTRPPLIKNLPKPIESLMTRCWSKDPSQRPSMEEIVKIMTHLMRYFPGADEPLQYPCQYSDEGQSNSATSTGSFMDIASTNTSNKSDTNMEQVPATNDTIKRLESKLLKNQAKQQSESGRLSLGASRGSSVESLPPTSEGKRMSADMSEIEARIAATTGNGQPRRRSIQDLTVTGTEPGQVSSRSSSPSVRMITTSGPTSEKPTRSHPWTPDDSTDTNGSDNSIPMAYLTLDHQLQPLAPCPNSKESMAVFEQHCKMAQEYMKVQTEIALLLQRKQELVAELDQDEKDQQNTSRLVQEHKKLLDENKSLSTYYQQCKKQLEVIRSQQQKRQGTS

- binding [4]: no binding
B5: HA-tagged TAK1 S268A (protein, UniProt O43318-2 1-579)
chain: B3 chain with S268A

- binding [4]: binds
B6: HA-tagged TAK1 S412A (protein, UniProt O43318-2 1-579)
chain: B3 chain with S412A

- binding [4]: binds
B9: HA-tagged TAK1-N (kinase domain, 1-300AA) (domain or fragment, UniProt O43318-2 1-300)
chain: MSTASAASSSSSSSAGEMIEAPSQVLNFEEIDYKEIEVEEVVGRGAFGVVCKAKWRAKDVAIKQIESESERKAFIVELRQLSRVNHPNIVKLYGACLNPVCLVMEYAEGGSLYNVLHGAEPLPYYTAAHAMSWCLQCSQGVAYLHSMQPKALIHRDLKPPNLLLVAGGTVLKICDFGTACDIQTHMTNNKGSAAWMAPEVFEGSNYSEKCDVFSWGIILWEVITRRKPFDEIGGPAFRIMWAVHNGTRPPLIKNLPKPIESLMTRCWSKDPSQRPSMEEIVKIMTHLMRYFPGADEPLQY

The remaining lines, values behind:

Molecule: HDAC1 (from UniProt Q13547 1-482)
- binding [1]: binds

Molecule: Damage-specific DNA binding protein 1 (from UniProt Q16531 1-1140)
- binding [1]: binds

Molecule: HDAC6 (from UniProt Q9UBN7 1-1215)
- binding [1]: binds

B1: TAK1 (MAP3K7) (protein, UniProt O43318 1-606)
chain: MSTASAASSSSSSSAGEMIEAPSQVLNFEEIDYKEIEVEEVVGRGAFGVVCKAKWRAKDVAIKQIESESERKAFIVELRQLSRVNHPNIVKLYGACLNPVCLVMEYAEGGSLYNVLHGAEPLPYYTAAHAMSWCLQCSQGVAYLHSMQPKALIHRDLKPPNLLLVAGGTVLKICDFGTACDIQTHMTNNKGSAAWMAPEVFEGSNYSEKCDVFSWGIILWEVITRRKPFDEIGGPAFRIMWAVHNGTRPPLIKNLPKPIESLMTRCWSKDPSQRPSMEEIVKIMTHLMRYFPGADEPLQYPCQYSDEGQSNSATSTGSFMDIASTNTSNKSDTNMEQVPATNDTIKRLESKLLKNQAKQQSESGRLSLGASRGSSVESLPPTSEGKRMSADMSEIEARIAATTAYSKPKRGHRKTASFGNILDVPEIVISGNGQPRRRSIQDLTVTGTEPGQVSSRSSSPSVRMITTSGPTSEKPTRSHPWTPDDSTDTNGSDNSIPMAYLTLDHQLQPLAPCPNSKESMAVFEQHCKMAQEYMKVQTEIALLLQRKQELVAELDQDEKDQQNTSRLVQEHKKLLDENKSLSTYYQQCKKQLEVIRSQQQKRQGTS
- binding [2]: binds

B2: 14-3-3ζ, P63104 1-245 (protein)
chain: MDKNELVQKAKLAEQAERYDDMAACMKSVTEQGAELSNEERNLLSVAYKNVVGARRSSWRVVSSIEQKTEGAEKKQQMAREYREKIETELRDICNDVLSLLEKFLIPNASQAESKVFYLKMKGDYYRYLAEVAAGDDKKGIVDQSQQAYQEAFEISKKEMQPTHPIRLGLALNFSVFYYEILNSPEKACSLAKTAFDEAIAELDTLSEESYKDSTLIMQLLRDNLTLWTSDTQGDEAEAGEGGEN
- binding [3]: binds

B4: HA-tagged TAK1 S432A (protein, UniProt O43318-2 1-579)
chain: B3 chain with S432A
- binding [4]: binds

B7: TAB1 (MAP3K7IP1) (protein, UniProt Q15750 1-504)
chain: MAAQRRSLLQSEQQPSWTDDLPLCHLSGVGSASNRSYSADGKGTESHPPEDSWLKFRSENNCFLYGVFNGYDGNRVTNFVAQRLSAELLLGQLNAEHAEADVRRVLLQAFDVVERSFLESIDDALAEKASLQSQLPEGVPQHQLPPQYQKILERLKTLEREISGGAMAVVAVLLNNKLYVANVGTNRALLCKSTVDGLQVTQLNVDHTTENEDELFRLSQLGLDAGKIKQVGIICGQESTRRIGDYKVKYGYTDIDLLSAAKSKPIIAEPEIHGAQPLDGVTGFLVLMSEGLYKALEAAHGPGQANQEIAAMIDTEFAKQTSLDAVAQAVVDRVKRIHSDTFASGGERARFCPRHEDMTLLVRNFGYPLGEMSQPTPSPAPAAGGRVYPVSVPYSSAQSTSKTSVTLSLVMPSQGQMVNGAHSASTLDEATPTLTNQSPTLTLQSTNTHTQSSSSSSDGGLFRSRPAHSLPPGEDGRVEPYVDFAEFYRLWSVDHGEQSVVTAP
- binding [2]: binds

B8: NONO (protein, UniProt Q15233 1-471)
chain: MQSNKTFNLEKQNHTPRKHHQHHHQQQHHQQQQQQPPPPPIPANGQQASSQNEGLTIDLKNFRKPGEKTFTQRSRLFVGNLPPDITEEEMRKLFEKYGKAGEVFIHKDKGFGFIRLETRTLAEIAKVELDNMPLRGKQLRVRFACHSASLTVRNLPQYVSNELLEEAFSVFGQVERAVVIVDDRGRPSGKGIVEFSGKPAARKALDRCSEGSFLLTTFPRPVTVEPMDQLDDEEGLPEKLVIKNQQFHKEREQPPRFAQPGSFEYEYAMRWKALIEMEKQQQDQVDRNIKEAREKLEMEMEAARHEHQVMLMRQDLMRRQEELRRMEELHNQEVQKRKQLELRQEEERRRREEEMRRQQEEMMRRQQEGFKGTFPDAREQEIRMGQMAMGGAMGINNRGAMPPAPVPAGTPAPPGPATMMPDGTLGLTPPTTERFGQAATMEGIGAIGGTPPAFNRAAPGAEFAPNKRRRY
- binding [2]: binds

Source: publication PMC3589417
